Test results as given in PubChem BioAssay AID493208 (National Center for Advancing Translational Sciences (NCATS), 2011).
About 340 (0.77%) of roughly 44,000 compounds were called active. Another 5% or so got no clear call; they are omitted. Calls come from the whole dose curve; as a rule, active = well fitted inhibition curve with a large enough effect; inconclusive = small, poorly fitted or top-dose-only effect; inactive = flat fitted curve, though single readings scatter. This is one part of the list.

Assay: Acumen qHTS Assay for Inhibitors of the mTORC1 Signaling Pathway in MEF (Tsc2-/-, p53-/-) Cells: Sytravon;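 note: plate controls were DMSO for no effect and rapamycin for full effect; nearly all actives have a fitted effect of over 50% in size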
Settings: phospho-rpS6 immunofluorescence/PI, 24 h; series mostly up to 38.3 µM; activity change, negative = inhibition: at the top concentration
Procedure, shortened: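 Immunofluorescence of rpS6 phosphorylation in Tsc2-/-, p53-/- MEFs after 24 h compound exposure, normalized to propidium iodide signal. Activity is expressed as % positive cells, thresholded with 7.5 nM rapamycin.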

Activity change, negative = inhibition, inactive:
COc1cccc(NS(=O)(=O)c2ccc3[nH]c4c(c3c2)CCCCCC4)c1 -27.5%, CCc1ccc(CN(C(=O)c2ccc(OC)cc2)C2CCS(=O)(=O)C2)cc1 (stereo not drawn) -0.557%, CCOC(=O)c1ccc(NC(=O)CC2Nc3cccc4cccc(c34)NC2=O)cc1 (stereo not drawn) -8.04%, Cc1noc(C)c1S(=O)(=O)Nc1ccc(C(=O)Nc2ccc(C(C)C)cc2)cc1 -1.68%, COc1ccc(-c2onc(C)c2C)cc1S(=O)(=O)N1CCc2ccccc21 -16%, COc1cc2c(cc1NC(=O)COc1ccc(Br)c(C)c1)oc1ccccc12 -2.19%, CCC12CN3CC(CC)(CN(C1)C3c1cccc(OC)c1O)C2=O (stereo not drawn) 1.21%, Cc1ccc2nc(N(Cc3cccnc3)C(=O)c3ccco3)sc2c1 1.15%, COc1ccc(-c2c(C)c3ccc(O)c(CN4CCCCC4)c3oc2=O)cc1OC 6.59%, CCc1ccc(-n2c(SCc3nc(-c4cc(OC)ccc4OC)no3)nnc2-c2ccccc2)cc1 -4.12%, COc1ccc(C2=CC(c3ccccc3Cl)n3nc(-c4ccc(C)cc4)nc3N2)cc1 (stereo not drawn) -3.97%, CCOC(=O)c1c(NC(=O)CCCOc2ccc(C)cc2)sc2c1CCC(C)C2 (stereo not drawn) -6.59%, CCc1ccc(CNC(=O)c2ccc(CS(=O)c3ccc(Br)cc3)o2)cc1 (stereo not drawn) -1.56%, CCc1nnc(SCC(=O)Nc2ccc(Cl)cc2F)c2cc3occc3n12 -11.8%, CCOC(=O)Cn1c(=O)n(-c2ccccc2OC)c2nc(-c3ccccc3)nc(C(N)=O)c21 7.14%, Cc1cccc(N2CCN(C(=O)c3cn(C)c4ccc(S(=O)(=O)N(C)C)cc4c3=O)CC2C)c1 (stereo not drawn) -0.862%, CCn1c(C(=O)NCc2ccc(C)cc2)cc2sc(Cl)cc21 -18.9%, COc1ccc(-c2nc3ccccc3s2)cc1NC(=O)c1ccc(C#N)cc1F 7.68%, CCOCCc1nn2c(=O)cc(COC(=O)COc3ccc(C)c(C)c3)nc2s1 -13.5%, CC(C)c1ccc(NC(=O)c2ccc3oc(=O)c(S(=O)(=O)c4ccc(F)cc4)cc3c2)cc1 -3.54%, COc1cn(CC(=O)Nc2c(C)cc(C)cc2C)c(CN2CCCCC2)cc1=O 0.429%, CCOc1ccc(S(=O)(=O)NCCc2csc3nc(-c4ccc(OC)c(OC)c4)nn23)cc1 -11.8%, CCc1ccc(NC(=O)CC2C(=O)NCCN2C(=O)c2ccccc2OC)cc1 (stereo not drawn) 1.84%, Cc1nc(SCc2cc(=O)c3cccc(F)c3[nH]2)n[nH]1 0.682%, CC(C)c1ccc(NC(=O)CSc2ncnc3c2sc2ccccc23)cc1 0.128%, COc1ccccc1CNCc1ccc(C(=O)O)s1 3.47%, Clc1cccc(CSc2nc(NCCc3ccccc3)c3ccccc3n2)c1 -11.9%, COc1ccc(NC(=O)Cn2ncc3c(C)n(Cc4cccc(Cl)c4)c(C)c3c2=O)cc1 -0.902%, COc1c(C)cccc1C(=O)Nc1ccc(Cl)c(-c2nc3cc(C)ccc3o2)c1 -9.15%, COc1ccc(-c2nc3sc(CCNC(=O)Cc4ccc(Cl)cc4)c(C)n3n2)cc1 -0.525%, CCOc1ccc(CCNC(=O)CSc2nc3ccccc3nc2Cc2ccc(C)cc2)cc1OCC -14.1%, CC(C)CCOc1ccc(Cn2c(=O)sc3ccccc32)cc1 -1.26%, CCN(CC)c1ccc(NC(=O)CN(C)S(=O)(=O)c2cccc3nsnc23)c(C)c1 -13.7%, CCOc1ccc(C2C(=O)N(C3CCCCCC3)CC(=O)N2Cc2ccc(F)cc2)cc1OC (stereo not drawn) -1.82%, CCN(CC)c1ccc(C(=O)NCc2ccc3c(c2)CCN3C(=O)c2cccc(C)c2)cc1 -1.45%, CCOc1ccc(CCNC(=O)C(CC(C)C)N2Cc3ccccc3C2=O)cc1OCC (stereo not drawn) -2.54%, Cc1ccccc1CN1C(=O)c2ccccc2Sc2ccc(C(=O)O)cc21 -9.27%, CCOc1ccc(NC(=O)CCc2nc3cccnc3n2Cc2ccc(OC)cc2)cc1 -5.14%, Cc1ccc(CS(=O)Cc2ccc(C(=O)NCc3ccccc3Cl)o2)cc1 (stereo not drawn) -12.5%, Nc1nnc(SCC(=O)Nc2cccc(F)c2)s1 -29.4%, Clc1ccc(Nc2nc(-c3ccccc3)c3ccccc3n2)c(Cl)c1 7.74%, O=S(=O)(c1cc(Br)c(Br)s1)N1CCN(c2ccccc2)CC1 3.84%, COc1ccccc1C(=O)Nc1cccc(OCc2cc(=O)n3c(C)csc3n2)c1 -28.8%, Cc1ccc(S(=O)(=O)c2nnn3c2nc(NCc2ccccc2)c2sccc23)cc1 5.4%, CC(C)c1ccc(NC(=O)C2CCN(S(=O)(=O)c3ccc(Br)s3)CC2)cc1 -0.78%, COc1cccc(NC(=O)CCSc2nc(-c3ccco3)cc(C(F)(F)F)n2)c1 -20.2%, COc1ccc(-c2noc(N3CCN(c4ccc(Cl)cc4)CC3)n2)cc1OC 2.16%, CCc1nn2c(=O)cc(COC(=O)c3cccc(NC(=O)COc4ccccc4)c3)nc2s1 6.87%, CCOc1ccccc1NC(=O)C(=O)c1cc(C)n(-c2cccc(C)c2C)c1C -12.8%, CC(C)Cc1nn2c(=O)cc(COC(=O)c3ccccc3NC(=O)c3cccs3)nc2s1 0%, COc1ccccc1NC(=O)C1=C(C)Nc2nc(SCc3ccccc3F)nn2C1c1ccncc1 (stereo not drawn) -5.36%, Cc1cccc(NC(=O)C2CCN(S(=O)(=O)c3ccc4[nH]c5c(c4c3)CCCCC5)CC2)c1 -1.61%, Cc1cc(C)cc(NC(=O)Cn2cc(C(=O)c3ccncc3)c(=O)c3cc(C)c(C)cc32)c1 -6.42%, CCc1cccc(C)c1NC(=O)C1CCN(c2nnc(C)c3c(C)n(-c4ccccc4)nc23)CC1 0%, COc1ccc(CNC(=O)C2CCN(S(=O)(=O)c3ccc4nc5c(c(C(=O)O)c4c3)CCCC5)CC2)cc1 -1.39%, CCCCCn1c(=O)[nH]c2cc(C(=O)N3CCN(c4cccc(Cl)c4)CC3)ccc2c1=O -14.9%, CN(c1ccccc1)S(=O)(=O)c1nnc(NC(=O)c2ccco2)s1 -4.75%, Cc1ccccc1NC(=O)c1cc2sccc2n1Cc1ccc(F)cc1 -1.52%, COc1ccc(OC)c(CNC(=O)c2cc(S(=O)(=O)N3CCC(C)CC3)cn2C)c1 -2.3%, COc1cc2oc(=O)c(CC(=O)NCCc3ccccc3)c(C)c2cc1Cl 0.524%, CCOC(=O)CCn1c(=O)c2cccn2c2cccnc21 -2.27%, CSc1nn(Cc2ccccc2C)c(NC(C)=O)c1S(=O)(=O)c1ccc(C)cc1 -3.6%, COCCN1Cc2cccc(C(=O)Nc3ccc(C(=O)OC)cc3)c2C1=O 0.764%
